Read counts are not given, so values of variants with three or more changes are uncertain.
B1: LINE1-mini (parent)
chain: GGCAGAGCUCAACACAGCGUGGCAAAGUGGCUGUGGCUAGACUGCC

Variants of: B1
Assay: self-cleavage, relative activity (ratio to wild type); higher = more cleavage; in vitro, sequencing; the parent is a self-cleaving ribozyme

Variant	self-cleavage
GGCAGAGCUCAACACAGCGUGGUGAAGUGGCUGCCGCCAGACUGCC [C23U A24G U34C G35C U38C]	0
GGCAGAGCUCAACACAGCUUUGCUAAGUGGCUCUGGCUAGACUGCC [G19U G21U A24U G33C]	0.1
GCCAGAGCGCAACACAGAGUGGCAAAGUGGCUGUGGCUAGACUGCC [G2C U9G C18A]	0.04
GGCAGAGCUAAACCCAGCGUAGCAAAUUGGCUGAGGCUAGACUACC [C10A A14C G21A G27U U34A G44A]	0.01
GGCAGAGCUCAACAUAGCGUUGCAAAGAGGCUGUGGCUACACUGCC [C15U G21U U28A G40C]	0.03
GGCAGGGCUCAACACAGCUUGGCAAAGUGGUUGUGGUUAGACUGCC [A6G G19U C31U C37U]	0.01
GUCAGAGUUCAACACAACGUGGCAAAGUGGCAGUGGCUAGACAGCC [G2U C8U G17A U32A U43A]	0.02
GGCAGAGAGCAACACAGCGUGGCAAAGUGGCUAUGACUAGACUGCC [C8A U9G G33A G36A]	0.27
GGCAGAGCUCAACACAGCGUGGCAAACUGGCUAUGGCUAGACUGAC [G27C G33A C45A]	0.05
GGCAGAGCUCAACACAUCGGAGCAAAGUGGCUGUGGCUAGACUGCC [G17U U20G G21A]	0.05
GGGAGAGAUCAACAGAGCGUGUCAAAGUGGCUGUGGCUAGACUGCC [C3G C8A C15G G22U]	1.2
AGCAGAGCUCAACACAGCGUGGCAAAGUGUCCGUGGCUAGAGUGCC [G1A G30U U32C C42G]	0.06
GGUACAGCUCAACACAGAGUGUCAUAGUGGCUGUGGCUAGACUGCC [C3U G5C C18A G22U A25U]	0.06
GACAGAGCUCUACACAGCGUGGCAAAGUGGCUGUGGCUACACUGCC [G2A A11U G40C]	0.06
GGCAGAGCUCAACACAGCGUGUCAAAGUGGCUGUGGGUAGGCUGCC [G22U C37G A41G]	0.01
GGCAGAGCACAACACAGCCAGGCAAAGUGCCUGUGGCUAGACGACC [U9A G19C U20A G30C U43G G44A]	0.44
GGUAGGGCUCAACACAGCGUGGCAAAGUCACUGUGGCUGGACUGCC [C3U A6G G29C G30A A39G]	0.07
GGCAAACCUCAACACAGCCUGGCAAAGUGGCUGUGGCUAGACUGCC [G5A G7C G19C]	0.04
UGCAUAGCUCAACGCAGCGUGGCAAAGUGGCUGUGUCUAGACAGCC [G1U G5U A14G G36U U43A]	0

Variant	self-cleavage
GGCAGAGCUCUACACAGCGUGGCAAAGUGGCUGUAGCUAGACUACC [A11U G35A G44A]	0.04
GGCAGCCCUCAAUACAGCGUGGCAGAGUGGCUGUGGCUAGACUGCC [A6C G7C C13U A25G]	0.07
GGCAGAGCUCAACACAGCAUGGCAUAGUGGCUGUGGCUGGACUGCC [G19A A25U A39G]	0.03
UGAAGAGCUAAACACCGAGUGGCAAAGUGGCUGUGGCUAGACUGCC [G1U C3A C10A A16C C18A]	0.03
GGCAGAGAUCAAAACAGGGUGGCAAAGUUCCUGUGGCUAGACUGCU [C8A C13A C18G G29U G30C C46U]	0.34
GGCAGAGCUCAACACAGCGUGGCGAAGUGGCUGUGGCUAGACUUUC [A24G G44U C45U]	0.17
GGCAGAGCGCAACAUAGCGUGGCAAAGUAGCUGUGGCUAGAUUGCC [U9G C15U G29A C42U]	0.08
CGCAGAGCUCAACACAGCGUGGCAAAGUUGGUGUGGCUAUACUGCC [G1C G29U C31G G40U]	0
GCCAGAGCUCAACACAUCGUGUCAAAGUGGCUGUGGCUAGACUUCC [G2C G17U G22U G44U]	0.02
GGCUGAGCUCAACAGAGCGUGGCAAAGUGGCUGCGGCUACACUGCC [A4U C15G U34C G40C]	0.03
GGCAGAGCUCAACAAACCGUGGCAAUGUGGCUAUGGCUACACUGCC [C15A G17C A26U G33A G40C]	0.04
GGCAGGGCUCACCACAGCGUUGCAAAGUGGCUGUUGCUAGACUGCC [A6G A12C G21U G35U]	0.02
GGCAGAGUUGAACACAGCGUGCCAAAGUGGCUGUGGCUAGACUGCC [C8U C10G G22C]	0.01
CGCAGAGCUCAACUCAGCGUGGCAAAGCGGCUGUGGCUAGACUGCC [G1C A14U U28C]	0.01
GGCAGAGCUGAUCAUAGCGUGGCAAAGUGGUUGUGGCUAGACUGCC [C10G A12U C15U C31U]	0.02
GGCAGAGCUCAAGACAGCGUGCCAACGUGGCUGUGGCUAGACUGCC [C13G G22C A26C]	0.32
GGCAGAGCUCAUCACAGCGUGGCAAAGUGGCUGUGACUAGACUGCA [A12U G36A C46A]	0.01
UGGAGGGCUCAAGUCAGCGUGGCAAAGCGGCUGUGGCUUGACUGCC [G1U C3G A6G C13G A14U U28C A39U]	0.02
GGCAGAGCUCAACACUGCGUUAAAAGGUGGCUGUGGCUAGCCAGGC [A16U G21U G22A C23A A26G A41C U43A C45G]	0.02

Variant	self-cleavage
GACAGAGCUCAACACAGCAUGGUAAAGUGACUGUAGCUAGACUGCC [G2A G19A C23U G30A G35A]	1.04
GGCAGUGCUCAACACAGCGUGUCAAAGUGGCUGUGGCUAAACUGCC [A6U G22U G40A]	0.18
GGCAGAGCUCACCACAACGUGGCCAAGUGGCUGUGGCUAGACUGGC [A12C G17A A24C C45G]	0.01
GGCAGAGCUCAACACAGCGUUGCAAAGUGGCUGUGGCUAGCAUGCC [G21U A41C C42A]	0.34
GGCAGAGCUCAACACAGCGUUGCAAAGUGGCUCUUGCUAGACUGCC [G21U G33C G35U]	0.06
GGCAGAGCUCAACACAGCGUGGCAAAUUGGCUGUGGCUAGAGAGCU [G27U C42G U43A C46U]	0.02
AGCAGAGUUCAACACAGCGUGGCAAAGUGGUUGUGGCUAGACUGCC [G1A C8U C31U]	0.38
GGCAGAGCUCAACACAGCGUGGCAAAGUGUUUGUGGCUAGACUGCG [G30U C31U C46G]	0.03
GGCAGAGCUCAACACAGCGUGGCAAGGUGGCUUUGGCUAGCGUGCC [A26G G33U A41C C42G]	0.03
GGCAGAGCUCAACACAGCGCGGCAAUGUGGCUUUGGCUAGACUGGC [U20C A26U G33U C45G]	0.02
GGCAGAGCCCAACACAGCGUGGCGAAGUGGCUUUGGCUAGACUGCC [U9C A24G G33U]	0
GUCAGGGCUCAACAGAGCGUGGCAAAGUGGCUGUGGCUAGAAUGCC [G2U A6G C15G C42A]	0.01
GGCAGACCUCAAUACAGCGUGGCAAGGUGGCUGUGGCUAGAUUGCC [G7C C13U A26G C42U]	0.04
GGCAGAGCACAACAGAGCGUGGCAAAGUGCCUGUGGCUAGACUGCC [U9A C15G G30C]	0.08
GGCAGAGCUCAACACAGCGUGACAAUCUGGCUGUGGCUAUACUGCC [G22A A26U G27C G40U]	0.51
GGCAGAGCUCAAAACAGCGCGGUGAAGUGGGUGCGGCUAGACUGCC [C13A U20C C23U A24G C31G U34C]	0.02
GGCUGAGCUCAACACAGCGUGGCAAAGUGGCUGUAGCGAUACUGCC [A4U G35A U38G G40U]	0.01
GGCAGAGCUCAACAGAGCGUGGCAAAGUGGCUGUGGCUCGACUGAC [C15G A39C C45A]	0.03

From the RNAGym collection of RNA variant scans (doi:10.7554/elife.90254)
